PubChem BioAssay AID686979 (National Center for Advancing Translational Sciences (NCATS), 2013)
Where “and” joins values, the source holds several entries; their conditions need not be identical. Equal values may be shown once. The whole screen tested about 420,000 compounds, of which about 50,000 (12%) were called active. Inconclusive results, whose numbers are uncertain, are shown with a selection of clear calls. Calls come from the whole dose curve; as a rule, active = well fitted inhibition curve with a large enough effect; inconclusive = small, poorly fitted or top-dose-only effect; inactive = flat fitted curve, though single readings scatter. Potencies of inconclusive entries are doubtful fits and often do not repeat.

Test: qHTS for Inhibitors of human tyrosyl-DNA phosphodiesterase 1 (TDP1): qHTS in cells in presence of CPT; note: nearly all actives have a fitted effect of over 55% in size
Conditions: chicken DT40 Tdp1-/-;hTDP1 cells + 20 nM CPT, ATP luminescence, 48 h; activity change, negative = growth inhibition: at 46.2 µM (top of the series)
Method in brief: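 Chicken DT40 Tdp1-/- cells complemented with human TDP1, 400 cells/well, exposed to compounds plus 20 nM camptothecin for at least 48 h at 37 C; viability read as ATP content by CellTiter-Glo luminescence.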
% is set by controls: 0 for no effect and ±100 for the full control effect; potency is the fitted concentration of half-maximal effect; tags give direction and shape of the fitted curve.

Structure (SMILES)	Potency	activity change, negative = growth inhibition
Cc1c(-n2c(SCC(C)C)nc3ccccc3c2=O)c(=O)n(-c2ccccc2)n1C	inconclusive: 25.9 µM [inhibitor, single point]	–
COc1ccccc1OCC(=O)N1CCN(C(=O)COc2ccccc2OC)CC1	inactive	–
COc1cccc(CN2CC(C(=O)NCc3cccc(N4CCCC4)c3)CCC2=O)c1 (stereo unspecified)	inconclusive: 29.1 µM [inhibitor, single point]	–
OC(c1ccc(Cl)c(F)c1)c1ncc(-c2ccc(Cl)cc2)[nH]1 (stereo unspecified)	inconclusive: 16.4 µM [inhibitor, partial curve, poor fit]	–
COc1ccc(C(=O)NCc2ccc3c(c2)CCN3C(=O)c2ccc(F)cc2)cc1	inconclusive: 16.4 µM [inhibitor, single point]	–
CC(C)CNC(=S)N(CCCO)Cc1cc2cc3c(cc2[nH]c1=O)OCCO3	inconclusive: 25.9 µM [inhibitor, single point]	–
COc1ccc(NC(=O)C(c2ccc(C(F)(F)F)cc2)n2c(=O)c(-c3ccco3)nc3ccccc32)cc1 (stereo unspecified)	inconclusive: 20.6 µM [inhibitor, single point]	–
Cc1cccc(NC(=S)NNC(=O)c2cccc([N+](=O)[O-])c2)c1	inactive	–
O=C(NCCCN1CCN(CCCNC(=O)c2ccc(F)cc2)CC1)c1ccc(F)cc1	inconclusive: 20.6 µM [inhibitor, single point]	–
Cc1c(C(=O)OCc2ccccc2)[nH]c2c1C(=O)CC(c1ccc(Cl)cc1)C2 (stereo unspecified)	active: 18.4 µM	–
COC(=O)c1ccc(NC(=O)CSc2nc(C)cc(=O)[nH]2)cc1	inactive	–
COc1ccccc1/C=C/CN1CCN(c2ccccc2)CC1	–	inconclusive: -31% [inhibitor]
CCOC(=O)C1CCN(c2c(NCCCN(CC)Cc3ccccc3)c(=O)c2=O)CC1	–	inconclusive: -34% [inhibitor]
CC(=O)Nc1ccc(NC(=O)c2ccc(-c3c(C)noc3C)c3ccoc23)cc1	active: 20.6 µM	–
CCOc1ccc(S(=O)(=O)Nc2cccc(-c3ccc(N4CCC(C)CC4)nn3)c2)cc1	inconclusive: 29.1 µM [inhibitor, single point]	–
CCCCn1nc2cc(C(=O)NC3CCc4ccccc43)ccc2c1OCC (stereo unspecified)	inconclusive: 25.9 µM [inhibitor, single point]	–
Cn1nnnc1SCCCNCc1cccc(OCc2ccccc2)c1	inconclusive: 29.1 µM [inhibitor, single point]	–
CCOC(=O)/C(C#N)=C/c1cn(CCC(=O)O)nc1-c1ccc(Cl)cc1	inactive	–
O=S1(=O)c2cccc3cccc(c23)N1Cc1nnc(-c2ccccc2Br)o1	active: 14.6 µM	–
COc1ccccc1CNC(=O)[C@@H]1CCCN1C(=O)[C@@H]1Cc2ccccc2CN1C(=O)OC(C)(C)C	active: 18.4 µM	–
CN(C)c1ccc(CNC(=O)C2COc3ccccc3C2)cc1 (stereo unspecified)	inactive	–
O=C(CSc1ncccc1C(=O)Oc1ccccc1Cl)Nc1ccccc1Cl	inconclusive: 16.4 µM [inhibitor, single point]	–
COc1ccc(OC)c(-c2csc(N(C)C(=O)Cc3ccccc3)n2)c1	inactive	–
CCOc1cc(C)c(C(C)C)cc1S(=O)(=O)n1cnc(C)c1	inconclusive: 20.6 µM [inhibitor, single point]	–

Structure (SMILES)	Potency	activity change, negative = growth inhibition
CN(C)CCC=C1c2ccccc2C=Cc2ccccc21	inconclusive: 29.1 µM [inhibitor, single point] and inconclusive: 26.6 µM [inhibitor, single point]	–
CCN1CCN(c2ncnc3c2cnn3-c2cccc(C)c2)CC1	active: 23.1 µM	–
CCCCNC(=O)C[C@@H]1C[C@@]2(C(=O)OC)CC(C)(C)CC=C2N(Cc2ccco2)C1=O	inconclusive: 29.1 µM [inhibitor, single point]	–
O=C(NCc1ccco1)c1ccc(Cn2c(SCc3ccccc3F)nc3cccnc32)cc1	inconclusive: 23.1 µM [inhibitor, single point]	–
O=C(CSc1nnc(-c2ccccc2O)n1Cc1ccccc1)NNC(=O)c1ccccc1O	inconclusive: 16.4 µM [inhibitor, single point]	–
COc1ccc(C2CC(c3ccccc3)=NN2c2ccc(/C=N/NC(=O)c3ccncc3)cc2)cc1 (stereo unspecified)	inconclusive: 29.1 µM [inhibitor, single point]	–
COc1ccc(CCNC(=O)Cn2cc(S(=O)(=O)Cc3ccc(F)cc3)c3ccccc32)cc1OC	inconclusive: 20.6 µM [inhibitor, single point]	–
Cn1c(=S)n(/N=C/c2ccc3c(c2)OCO3)c2ccccc21	inactive	–
CCOc1ccccc1NC(=O)C1CCCN1S(=O)(=O)c1ccc2nc(-c3ccccc3)[nH]c2c1 (stereo unspecified)	active: 10.3 µM	–
Cc1ccc(C(=O)Nc2nnc(-c3ccncc3)o2)cc1	inconclusive: 29.1 µM [inhibitor, single point]	–
COc1cc2c(cc1OC)C(C(=O)c1ccc(OC)c(OC)c1O)=NCC2	–	inactive: -13.5% [at 9.04 µM]
COc1ccc(OC)c(CCNC(=O)CS(=O)(=O)Cc2nc(-c3ccc(C)cc3)oc2C)c1	inconclusive: 14.6 µM [inhibitor, partial curve]	–
COc1ccc(-c2nc(N)c(C#N)c(-c3cccnc3)c2C)cc1	inactive	–
CCOc1ccc(-n2ccnc(SCC(=O)Nc3ccc(OC)cc3OC)c2=O)cc1	active: 20.6 µM	–
C/C(=N\NC(=S)NCCc1ccccc1)c1cccc(Br)c1	inconclusive: 29.1 µM [inhibitor, single point]	–
O=C(O)c1ccc2c(c1)N(Cc1ccc(F)cc1)C(=O)c1ccccc1S2	inactive	–
COc1ccc(-c2csc(NC(=O)COC(=O)c3ccco3)n2)cc1	active: 23.1 µM	–
COc1ccc(C2/C=C\CN(Cc3ccco3)CC(=O)N2Cc2ccc(F)cc2)cc1 (stereo unspecified)	inconclusive: 29.1 µM [inhibitor, single point]	–
CCOc1cc(-c2noc(-c3ccncc3)n2)cc(Br)c1OC	inconclusive: 16.4 µM [inhibitor, single point]	–
CCC(C)Nc1nc2c(c(=O)[nH]c(=O)n2C)n1CCOc1ccccc1 (stereo unspecified)	active: 20.6 µM	–
Cn1c(-c2ccsc2)c(-c2cccs2)c2cc(Br)ccc21	inconclusive: 29.1 µM [inhibitor, single point]	–
CN(Cc1ccccc1)C(=O)COC(=O)c1cc(=O)c2ccccc2o1	inactive	–
COc1cc(/C=N/N=C(/N)c2nonc2N)cc(Br)c1OCc1ccccc1C	inconclusive: 29.1 µM [inhibitor, single point]	–
Cc1c(C(=O)NCc2cccc(C(F)(F)F)c2)sc(=O)n1Cc1cccc(F)c1	inconclusive: 23.1 µM [inhibitor, single point]	–

Structure (SMILES)	Potency	activity change, negative = growth inhibition
COc1ccc(-c2cc(C3CC3)nc(SCC(=O)c3cccs3)c2C#N)cc1	inconclusive: 14.6 µM [inhibitor, partial curve]	–
Cc1cn([C@@H](CCCCNC(=O)OC(C)(C)C)C(=O)NCCCCCCCCCCC(=O)N2CCN(C(=O)OC(C)(C)C)CC2)nn1	active: 8.2 µM	–
COc1cnn(-c2ccc([N+](=O)[O-])cc2)c(=O)c1Cl	inconclusive: 16.4 µM [inhibitor, single point]	–
Cc1nn(C)c(NC(=O)c2ccc(Cl)cc2)c1Cl	inconclusive: 23.1 µM [inhibitor, single point]	–
Cc1ccc(-n2nc3ccc(NC(=S)NC(=O)/C=C/c4ccco4)cc3n2)cc1	inactive	–
CN(C)C(=S)SCC(=O)Nc1ccc(Cl)cc1Cl	inactive	–
COc1ccc(C(NC(=O)CN2C(=O)NC3(CCc4ccccc43)C2=O)c2ccccc2)cc1 (stereo unspecified)	–	inconclusive: -30% [inhibitor]
Cc1cc([N+](=O)[O-])cc([N+](=O)[O-])c1NCC(C)C	inactive	–
COc1ccc(Cl)cc1NC(=O)c1ccccc1C	inactive	–
Cc1nn(C)c(C)c1CN(C)C(=O)c1cc2n(n1)C(C(F)(F)F)CC(c1cccs1)N2 (stereo unspecified)	active: 25.9 µM	–
CC(C)(C)Cc1c(-c2ccc(Cl)cc2)nc2c(Cl)cc(C(F)(F)F)cn12	inconclusive: 32.6 µM [inhibitor, partial curve, poor fit]	–
CCc1noc(C)c1C(=O)NNC(=O)c1ccc(F)cc1	inactive	–
COc1ccc(S(=O)(=O)N2CCCCCC2)cc1C(=O)N(C)CC(=O)Nc1ccccc1Cl	inconclusive: 29.1 µM [inhibitor, single point]	–
CCOC(=O)C1CCCN(C(=O)c2ccccc2)CC1 (stereo unspecified)	inactive	–
O=S(=O)(c1ccccc1)c1nnn2c1nc(NCc1ccccc1)c1cc(Cl)ccc12	active: 18.4 µM	–
CCOc1ccc2c(=O)c(Oc3ccccc3)c(C)oc2c1	inconclusive: 29.1 µM [inhibitor, single point]	–
CCOc1cc(NC(=S)Nc2ccccc2OC)c(OCC)cc1NC(=O)c1ccccc1C	inconclusive: 20.6 µM [inhibitor, single point]	–
CC(C)c1ccc(NC(=O)CCS(=O)(=O)c2ccc3c(c2)CC(=O)N3C)cc1	–	inconclusive: -35% [inhibitor]
CCOc1ccc(OCC)c(S(=O)(=O)n2cc(C)nc2CC)c1	inconclusive: 25.9 µM [inhibitor, single point]	–
Fc1ccc(Nc2ccnc(-c3ccoc3)n2)cc1	inactive	–
Cc1ccc(C)c(N(CC(=O)NCc2ccco2)C(=O)CCC(=O)Nc2nccs2)c1	inactive	–
CCCCCn1cc2c(c1-c1ccccc1Br)c(=O)n(C)c(=O)n2C	active: 11.6 µM	–
COC(=O)c1ccccc1NC(=O)CN(Cc1ccc(Cl)cc1)S(C)(=O)=O	–	inconclusive: -33.4% [inhibitor]
